Test results reported in patent publication US20210238308A1 (Chugai, published 2021).

T1: mouse TRIM21 PRYSPRY domain with N-terminal 6xHis tag (mouse)
T1 construct: Expressed from pET28a in E. coli; also called mTRIM21
T1 chain: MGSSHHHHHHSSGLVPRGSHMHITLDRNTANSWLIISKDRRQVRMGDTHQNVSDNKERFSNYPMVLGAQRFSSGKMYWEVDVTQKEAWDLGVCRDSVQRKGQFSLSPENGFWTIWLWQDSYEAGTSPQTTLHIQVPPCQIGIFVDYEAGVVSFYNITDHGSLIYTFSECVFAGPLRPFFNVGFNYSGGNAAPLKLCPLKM

T2: human TRIM21 PRYSPRY domain with N-terminal 6xHis tag (human)
T2 construct: Expressed from pET28a in E. coli; also called hTRIM21
T2 chain: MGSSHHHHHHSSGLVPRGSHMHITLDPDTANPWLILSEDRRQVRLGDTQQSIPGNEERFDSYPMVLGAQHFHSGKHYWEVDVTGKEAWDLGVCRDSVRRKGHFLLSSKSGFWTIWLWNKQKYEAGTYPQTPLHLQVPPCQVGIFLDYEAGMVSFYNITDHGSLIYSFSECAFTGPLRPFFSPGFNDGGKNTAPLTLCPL

B1: MRAH-G1d/MRAL-KT0 S440R (antibody)
heavy: QVQLQESGPGLVRPSQTLSLTCTVSGYSITSDHAWSWVRQPPGRGLEWIGYISYSGITTYNPSLKSRVTMLRDTSKNQFSLRLSSVTAADTAVYYCARSLARTTAMDYWGQGSLVTVSS[human IgG1 constant region with S440R (EU numbers) omitted here]
light: DIQMTQSPSSLSASVGDRVTITCRASQDISSYLNWYQQKPGKAPKLLIYYTSRLHSGVPSRFSGSGSGTDFTFTISSLQPEDIATYYCQQGNTLPYTFGQGTKVEIKRTVAAPSVFIFPPSDEQLKSGTASVVCLLNNFYPREAKVQWKVDNALQSGNSQESVTEQDSKDSTYSLSSTLTLSKADYEKHKVYACEVTHQGLSSPVTKSFNRGEC
B2: MRAH-G1d/MRAL-KT0 T437F (antibody, human IgG1, kappa)
heavy: QVQLQESGPGLVRPSQTLSLTCTVSGYSITSDHAWSWVRQPPGRGLEWIGYISYSGITTYNPSLKSRVTMLRDTSKNQFSLRLSSVTAADTAVYYCARSLARTTAMDYWGQGSLVTVSS[human IgG1 constant region with T437F (EU numbers) omitted here]
light: B1 light
B3: MRAH-G1d/MRAL-KT0 S440H (antibody)
heavy: QVQLQESGPGLVRPSQTLSLTCTVSGYSITSDHAWSWVRQPPGRGLEWIGYISYSGITTYNPSLKSRVTMLRDTSKNQFSLRLSSVTAADTAVYYCARSLARTTAMDYWGQGSLVTVSS[human IgG1 constant region with S440H (EU numbers) omitted here]
light: B1 light
B4: MRAH-G1d/MRAL-KT0 S440P (antibody)
heavy: QVQLQESGPGLVRPSQTLSLTCTVSGYSITSDHAWSWVRQPPGRGLEWIGYISYSGITTYNPSLKSRVTMLRDTSKNQFSLRLSSVTAADTAVYYCARSLARTTAMDYWGQGSLVTVSS[human IgG1 constant region with S440P (EU numbers) omitted here]
light: B1 light
B5: MRAH-G1d/MRAL-KT0 Q438H (antibody, human IgG1, kappa)
heavy: QVQLQESGPGLVRPSQTLSLTCTVSGYSITSDHAWSWVRQPPGRGLEWIGYISYSGITTYNPSLKSRVTMLRDTSKNQFSLRLSSVTAADTAVYYCARSLARTTAMDYWGQGSLVTVSS[human IgG1 constant region with Q438H (EU numbers) omitted here]
light: B1 light
B6: MRAH-G1d/MRAL-KT0 T437H (antibody, human IgG1, kappa)
heavy: QVQLQESGPGLVRPSQTLSLTCTVSGYSITSDHAWSWVRQPPGRGLEWIGYISYSGITTYNPSLKSRVTMLRDTSKNQFSLRLSSVTAADTAVYYCARSLARTTAMDYWGQGSLVTVSS[human IgG1 constant region with T437H (EU numbers) omitted here]
light: B1 light
B7: MRAH-G1d/MRAL-KT0 Q438G (antibody, human IgG1, kappa)
heavy: QVQLQESGPGLVRPSQTLSLTCTVSGYSITSDHAWSWVRQPPGRGLEWIGYISYSGITTYNPSLKSRVTMLRDTSKNQFSLRLSSVTAADTAVYYCARSLARTTAMDYWGQGSLVTVSS[human IgG1 constant region with Q438G (EU numbers) omitted here]
light: B1 light
B8: MRAH-G1d/MRAL-KT0 S440A (antibody)
heavy: QVQLQESGPGLVRPSQTLSLTCTVSGYSITSDHAWSWVRQPPGRGLEWIGYISYSGITTYNPSLKSRVTMLRDTSKNQFSLRLSSVTAADTAVYYCARSLARTTAMDYWGQGSLVTVSS[human IgG1 constant region with S440A (EU numbers) omitted here]
light: B1 light
B9: MRAH-G1d/MRAL-KT0 Q438S (antibody, human IgG1, kappa)
heavy: QVQLQESGPGLVRPSQTLSLTCTVSGYSITSDHAWSWVRQPPGRGLEWIGYISYSGITTYNPSLKSRVTMLRDTSKNQFSLRLSSVTAADTAVYYCARSLARTTAMDYWGQGSLVTVSS[human IgG1 constant region with Q438S (EU numbers) omitted here]
light: B1 light
B10: MRAH-G1d/MRAL-KT0 Q438Y (antibody, human IgG1, kappa)
heavy: QVQLQESGPGLVRPSQTLSLTCTVSGYSITSDHAWSWVRQPPGRGLEWIGYISYSGITTYNPSLKSRVTMLRDTSKNQFSLRLSSVTAADTAVYYCARSLARTTAMDYWGQGSLVTVSS[human IgG1 constant region with Q438Y (EU numbers) omitted here]
light: B1 light
B11: MRAH-G1d/MRAL-KT0 Q438L (antibody, human IgG1, kappa)
heavy: QVQLQESGPGLVRPSQTLSLTCTVSGYSITSDHAWSWVRQPPGRGLEWIGYISYSGITTYNPSLKSRVTMLRDTSKNQFSLRLSSVTAADTAVYYCARSLARTTAMDYWGQGSLVTVSS[human IgG1 constant region with Q438L (EU numbers) omitted here]
light: B1 light
B12: MRAH-G1d/MRAL-KT0 Q438E (antibody, human IgG1, kappa)
heavy: QVQLQESGPGLVRPSQTLSLTCTVSGYSITSDHAWSWVRQPPGRGLEWIGYISYSGITTYNPSLKSRVTMLRDTSKNQFSLRLSSVTAADTAVYYCARSLARTTAMDYWGQGSLVTVSS[human IgG1 constant region with Q438E (EU numbers) omitted here]
light: B1 light

Assays:
[1] = molecular target: T1, mouse TRIM21 PRYSPRY domain with …; experiment: SPR, Ab captured on Protein L, 100 nM mTRIM21
[2] = molecular target: T2, human TRIM21 PRYSPRY domain with …; experiment: SPR, Ab captured on Protein L, 100 nM hTRIM21
human FcRn = molecular target: T3, human FcRn (human, UniProt P55899 in part; P61769 in part, limits assumed); experiment: SPR pH 6.0, Ab captured on Protein L, 1 uM hFcRn
Sequence of human FcRn (P55899 24-290 limits assumed, form in doubt, chain 1 of 2): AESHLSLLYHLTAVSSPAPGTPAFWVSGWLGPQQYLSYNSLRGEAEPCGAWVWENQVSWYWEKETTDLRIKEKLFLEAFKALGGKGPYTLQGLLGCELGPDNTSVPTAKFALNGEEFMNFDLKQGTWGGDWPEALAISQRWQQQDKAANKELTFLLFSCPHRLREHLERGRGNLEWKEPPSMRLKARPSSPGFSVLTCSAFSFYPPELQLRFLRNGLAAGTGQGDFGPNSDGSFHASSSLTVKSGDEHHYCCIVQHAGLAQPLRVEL
Sequence of human FcRn (P61769 21-119 limits assumed, form in doubt, chain 2 of 2, further chain): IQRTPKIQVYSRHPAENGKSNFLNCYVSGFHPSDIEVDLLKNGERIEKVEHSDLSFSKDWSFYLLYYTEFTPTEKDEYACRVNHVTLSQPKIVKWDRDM
T3 construct: also called hFcRn

| Binder | mTRIM21 binding level ratio (variant/control antibody) [1] | hTRIM21 binding level ratio (variant/control antibody) [2] | hFcRn binding level ratio (variant/control antibody) (human FcRn) |
| --- | --- | --- | --- |
| B1 | 2.65 | 0.602 | 0.95 |
| B2 | 2.18 | 0.728 | 0.84 |
| B3 | 2.3 | 0.755 | 0.96 |
| B4 | 2.18 | 0.905 | 0.95 |
| B5 | 2.11 | 0.649 | 0.38 |
| B6 | 2.18 | 0.655 | 0.93 |
| B7 | 1.99 | 0.632 | 0.85 |
| B8 | 2.35 | 0.898 | 0.54 |
| B9 | 2.21 | 0.744 | 0.91 |
| B10 | 1.86 | 0.924 | 0.91 |
| B11 | 1.89 | 0.887 | 1.12 |
| B12 | 2.4 | 1.35 | 0.84 |
